Out of some 52,000 compounds screened, about 1,700 (3.3%) were called active. Cut-off read from the data, not from the text of the source: active = survival mostly below about 52% (no sharp cut-off); inactive = mostly above about 56%. The list shows a part of the results.
These molecules were tested on Wild type (assay: S. aureus survival, RN4220 and DeltatarO strains – OD600, teichoic acid synthesis inhibitors, primary screen (AID 463173)). Settings: S. aureus RN4220 wild type/DeltatarO growth, OD600, 18 h, hits give low values, screened at 18.75 µg/mL (by protocol).

SMILES | survival
COc1cc(Cl)c(NC(=O)CCS(=O)(=O)c2cc3c(cc2Cl)NC(=O)CO3)c(OC)c1 | inactive: 59%
COC(=O)CNc1nc(C2CC2)nc2c1nnn2Cc1ccccc1Cl | inactive: 107%
Cc1ccc2nc(N3CCN(c4cccc(Cl)c4)CC3)c(-n3nc(C)cc3C)nc2c1 | active: 3%
CC(=O)Nc1ccc(S(=O)(=O)Nn2cnnc2)cc1 | inactive: 113%
CCOC(=O)C1=C(CN2CCC(C)CC2)NC(=O)NC1c1ccc(F)cc1 (centres undefined) | inactive: 45%
Cc1cc(C)c2c(=O)cc(CSCC(=O)Nc3ccccc3Cl)[nH]c2c1 | inactive: 73%
Cc1ccc(-c2cc3ncc4c(n3n2)-c2cc(C)ccc2OC4)cc1 | inactive: 78%
O=C(O)CSCC(=O)Nc1cccc2ccccc12 | inactive: 102%
COc1ccc(CNC(=O)c2ccc(N3CCCC3)c(NC(=O)NCc3ccc(F)cc3)c2)cc1 | inactive: 66%
Cc1ccc(N2C(=O)CSC23C(=O)N(CC(=O)NCc2ccccc2)c2ccccc23)cc1C (centres undefined) | inactive: 74%
CNC(=O)c1c(NC(=O)c2ccc(S(=O)(=O)N3CCC(C)CC3)cc2)sc2c1CCC2 | inactive: 129%
Cc1cccc(C)c1OCC(=O)NCC1(N(C)C)CCCCC1 | inactive: 88%
COc1ccccc1CNC(=O)C1CCC(CNS(=O)(=O)c2ccc3c(c2)CCCC(=O)N3)CC1 (centres undefined) | inactive: 88%
COCCCNC(=O)c1ccc(NC(=O)c2nsc3ccccc23)cc1 | inactive: 84%
CS(=O)(=O)c1ccc(-c2nnc(NC(=O)c3ccc4c(c3)OCCO4)o2)cc1 | inactive: 75%
CCN(CC)CCNC(=O)c1ccc(Cn2c(SCc3ccccc3)nc3cccnc32)cc1 | inactive: 88%
Cc1ccc2c(Sc3ccc(Cl)cc3)c(C(=O)N3CCC(C)CC3)[nH]c2c1 | inactive: 73%
COc1ccc(CNS(=O)(=O)c2cnc(N)nc2)c(OC)c1 | inactive: 59%
CCC1CN(C(=O)N2CCC(C(=O)NCCN(CC)CC)CC2)c2cc(C)ccc2O1 (centres undefined) | inactive: 86%
CCc1nc2ccccc2n1CCCCOc1ccc(C)cc1 | active: 1%

SMILES | survival
CC(=O)c1ccc(NC(=O)Cn2cc(S(=O)(=O)Cc3cccc(Cl)c3)c3ccccc32)cc1 | inactive: 132%
N#CCn1c(Cc2ccccc2)nc2ccccc2c1=O | inactive: 109%
CCOc1cc(CNC(=O)c2sc3ncnc(N(C)C4CCCCC4)c3c2C)ccc1OC | inactive: 79%
CCN(C(=O)c1cc2c(s1)-c1c(C)cccc1OC2)c1ccccc1F | inactive: 96%
CCc1cc(=O)oc2c3c(c(Cl)cc12)OCN(Cc1cccc(OC)c1)C3 | inactive: 96%
CCC(=O)N1CCc2cc(Br)cc(S(=O)(=O)Nc3ccc(C)cc3C)c21 | inactive: 87%
Cc1ccc(C(=O)ON2C(=O)c3ccccc3C2=O)cc1 | inactive: 111%
COc1ccc(CC(=O)N2CCc3cc(OC)c(OC)cc3C2COc2ccc(OC)cc2)cc1 (centres undefined) | inactive: 131%
CC(C)Oc1ccc(CNC(=O)CCCN2C(=O)c3cccnc3Oc3ccc(Cl)cc32)cc1 | inactive: 69%
c1ccc(-n2ncc3c(N4CCOCC4)ncnc32)cc1 | inactive: 105%
CCOC(=O)c1scc(-c2ccccc2)c1S(=O)(=O)Nc1cc(OC)cc(OC)c1 | inactive: 71%
Cc1ccccc1OCC(=O)N1CCOCC1 | inactive: 108%
O=C(O)C1C2C=CC(C2)C1C(=O)NCC1CCCO1 (centres undefined) | inactive: 106%
COc1ccc(-n2nc(C(=O)N(C)c3cc(C)ccc3C)c3c4ccccc4n(C)c3c2=O)cc1Cl | inactive: 81%
O=C(Cn1cc(SCc2c(F)cccc2Cl)c2ccccc21)N1CCCCCC1 | inactive: 88%
Cc1ccc(C)c(NC(=O)c2cnn(-c3cccc(F)c3)c2C2CCN(C(=O)OC(C)(C)C)CC2)c1 | inactive: 124%
CCOc1ccc(NS(=O)(=O)c2ccc(-c3cc(C)no3)s2)cc1 | inactive: 76%
CCN(c1ccccc1)S(=O)(=O)c1ccc(NC(=O)c2cc(=O)c3cc(C)cc(C)c3o2)cc1 | inactive: 83%
Cc1c(Cl)cccc1NC(=O)c1cnc2sc(N3CCOCC3)nn2c1=O | inactive: 124%
Cc1nc2c(Cl)cc(Cl)cc2[nH]1 | inactive: 119%

SMILES | survival
CCC(=O)N1c2ccccc2CC1C(=O)NCCc1ccccc1C (centres undefined) | inactive: 70%
O=C(Nc1ccc2nn(-c3ccccc3)nc2c1)c1cc2ccccc2o1 | inactive: 80%
O=C(CSc1cn(CC(=O)N2CCOCC2)c2ccccc12)Nc1ccccc1F | inactive: 97%
Cc1ccc(S(=O)(=O)Nc2ccc3c(c2)CCCN3C(=O)c2cccs2)cc1 | inactive: 63%
Cc1cc2ccccc2n1CCNC(=O)c1cccc(Br)c1 | inactive: 70%
c1ccc(CSc2n[nH]c(-c3ccncc3)n2)cc1 | inactive: 110%
CC(=O)N1Cc2ccccc2C(C)CC12CCCC2 (centres undefined) | inactive: 110%
COc1ccc2oc(=O)cc(CN3CCN(Cc4ccccc4)CC3)c2c1 | inactive: 93%
COc1ccc(OC)c(CCNC(=O)CCCn2c(=O)c3cccn3c3ccccc32)c1 | inactive: 74%
O=C(c1ccc2c(c1)N(Cc1ccc(Cl)cc1)C(=O)c1ccccc1S2=O)N1CCOCC1 (centres undefined) | inactive: 83%
CCOc1ccccc1N1CC(c2nc3ccccc3n2CCOc2ccccc2)CC1=O (centres undefined) | inactive: 31%
CCc1cccc(NC(=O)Cn2c(=O)ccc3cc(S(=O)(=O)N4CCC(C)CC4)ccc32)c1 | inactive: 129%
CCc1ccc(CNc2ncnc3c2nc2n3CCCC2)cc1 | inactive: 71%
Cc1cc(C)c2c(CC(=O)N3CCN(c4cccc(Cl)c4)CC3)coc2c1 | inactive: 93%
CC1CCc2nc3ncn(Cc4ccccc4C#N)c(=O)c3cc2C1 (centres undefined) | inactive: 71%
COc1cccc(N2CCN(C(=O)c3ccc(Cn4c(=O)[nH]c5cc(OC)c(OC)cc5c4=O)cc3)CC2)c1 | inactive: 75%
COc1ccc(C(CNC(=O)c2oc3ccc(Cl)cc3c2C)N2CCCCC2)cc1 (centres undefined) | inactive: 109%
CC(NS(=O)(=O)c1ccccc1)C(=O)NCc1ccc2c(c1)OCO2 (centres undefined) | inactive: 116%
CCCC(=O)N(c1ccc2oc3c(c2c1)CCCC3)S(=O)(=O)c1cc(C)ccc1C | inactive: 61%

Reference: PubChem BioAssay AID463173 (ICCB-Longwood Screening Facility, Harvard Medical School, 2010)
